In the RNAGym collection of RNA variant scans (doi:10.1073/pnas.2313332121):
Variants at the floor of the assay are shown more often than the library holds them.

B1: TPR 5TU (parent)
chain: GGAUCUUCUCGAUCUAACAAAAAAGACAAAUCUGCCACAAAGCUUGAGAGCAUCUUCGGAUGCAGAGGCGGCAGCCUUCGGUGGCGCGAUAGCGCCAACGUUCUCAACUAUGACACGCAAAACGCGUGCUCCGUUGAAUGGAGUUUAUCAUG

Variants of: B1
Test: polymerase ribozyme fitness, log enrichment relative to wild type (log ratio); higher = more active; in vitro selection for triplet polymerase activity
How it was run: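 Only genotypes with ≥10 input reads and ≥1 read per output were kept after Illumina sequencing of input and output libraries. These libraries were PCR-built, transcribed mutants of each subunit of a heterodimeric triplet polymerase ribozyme, each put through one triplicate in vitro selection round with frozen incubation at −7 °C, gel excision of extended constructs, streptavidin-bead capture and RT-PCR. Fitness is a logarithmic ratio of genotype enrichment to wild-type enrichment, from inverse-variance-weighted replicate averages, with the logarithm in base 2.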

Polymerase ribozyme fitness (log ratio), -3.95:
GGAUCUUCUCGAUCUAACAAAAAAGACAAAUCUGACACAAAGCUUGAGAGCAUCUUCGGAUGCAGAGGCGGCAGCCUUCGGUGGCGCGAUAGCGACAACGUUCUCAGCUAUGACACGCAAAACGCGUGCUCCGUUGAAUGGAUUUUAUCAUG [C35A C95A A107G G143U]

Polymerase ribozyme fitness (log ratio), -4.1:
GGAUCUUCUCGAUCUAACAAAAAAGACAAAUCUGACACAAAGCUUGAGAGCAUCUUCGGAUGCAGAGGCGGCAGCCUUCGGUGGCGCGAUAGCGGCAACGUUCUCAACUAUGACACGCAAAACGCGUGCUCCGUUGAAUGGAGUUUAUCAUG [C35A C95G]

Polymerase ribozyme fitness (log ratio), ≤ -4.2:
GGAUCUUCUCGAUCUAACAAAAAAGACAAAUCUUCCACAAAGCUUGAGAGCAUCUACGGAUGCAGAGGCGGCAGGCUUCGGUGGCGCGAUAGCGCCAACGUUCUCAACUAUGACACGCAAAACGCGUGCUCCGGUGAAUGGAGUUUAUCAUG [G34U U56A C75G U134G]
GGAUCUUCUCGAUCUAACAAAAAAGACAAAUCUUCCACAAAGCUUGAGAGCCUCUUCGGAUUCGGAGGCGGCAGCCUUAGGUGGCGCGAUAGCGCCAACGUUCUCAACGAUGACACGCAAAACGCGUGCUCCGUUGAAUGGAGCUUAUCACG [G34U A52C G62U A64G C79A U109G U144C U151C]
GGAUCUUCUCGAUCUAACAAAAAAGACAAAUCUUCCACAAAGCUUGAGAGCAUCUUCUGAUGCAGAGGCGGCAGCCUUCGGUGGCGCGAUAGCGCCAACUUUCUCAACUAUGACACGCAAAACGCGUGCUCCGUUGAAUGGAGUUUAUCAUG [G34U G58U G100U]
GGAUCUUCUCGAUCUAACAAAAAAGACAAAUCUGACACGAAGCUUGAGAGCAUCUUCGGAUGCAGAGGCGGCAGCCUUCGGUGGCGCGAUAGCGCCAACGUUCUCAACUAUGACACGCAAAACGCGUGCUCCGUUGAAUGUAGUUUAUCAUG [C35A A39G G141U]
GGAUCUUCUCGAUCUAACAAAAAAGACAAAUCUUCCACAAAGCUUGAGAGCAUCUUAGGAUGCAGAGGCGGCACCCUUCGGUGGCUCGAUAGCGCCAACAUUCUCAACUAUGACACGGAAAACGCGUGCUCCGUUGAAUGGAGUUUAUCAUG [G34U C57A G74C G86U G100A C118G]
GGAUCUUCUCGAUCUAACAAAAAAGACAAAUCUGACACAAAGCUUGAGAGCAUCUUCGGAUGCAGAGGCGGCAGCAUUCGGUGGCGCGAUAGAGCCAACGUUCUCAACUAUGACACGCAAAACGCGUGCUCCGUUGAAUGGAGUUUACCAUG [C35A C76A C93A U148C]
GGAUCUUCUCGAUCUAACAAAAAAGACAAAUCUGACACAAAGCUUGAGAGCCUCUUUGGAUGCAGAGGCGGCAGCCUUCGGUGGCGCGAUUGCGCCAACGUUCUCUACUAUGCCACGCAAAACGCGUGCUCCGUUGAAUGGAGUUUAUCAUG [C35A A52C C57U A91U A106U A113C]
GGAUCUUCUCGAUCUAACAAAAAAGACAAAUCUGACACAAAGCUUGAGAGCAUCUUCGGAUGCAGGGGCGGCAGCCUUCGGUGGCGUGAUAGCGCCAACGUUCUCAACUAUGACACGCAAAACGCGCGCUCCGUUGAAUGGAGUUUAUCAUG [C35A A66G C87U U127C]
GGAUCUUCUCGAUCUAACAAAAAAGACAAAUCUUCCACAAAGCUUGAGAGCAAGUUUGGAUGCAGAGGCGGCAGCCUUCGGUGGGGCGAUAGCGCCAACCUUCACAACUAUGACACGCUAAACGAGUGCUCCGUUGAGUGGAGUUUAUCAUG [G34U U53A C54G C57U C85G G100C U104A A119U C125A A138G]
GGAUCUUCUCGAUCUAACAAAAAAGACAAAUCUUCCACAAAGCUUGAGAGAAUCUUCGGAUGCAGAGGCGGCAGCCUUCGGUGGCGCGAUAGUGCCAACGUUCUCAACUAUGACACGCAAAACGCGUGCUCCGUUGAAUGGAGUUUAUCAUG [G34U C51A C93U]
GGAUCUUCUCGAUCUAACAAAAAAGACAAAUCUGACACAAAGCUUGAGAGCAUCUUUGGAUGCAGAGGCGGCAGCCUUCGGAGGCGCGAUAGAGCCACCGUUCUCAACUAUGACACGCAAAACGCGUGCUGCGUUGAAUGGAGUUUAUCAUG [C35A C57U U82A C93A A98C C131G]
GGAUCUUCUCGAUCUAACAAAAAAGACAAAUCUUCCACAAAGCUUGAGAGCAUCUUCGGAUGCAGAGGCGGCAGCCUUCGGUGGCGCGAUACCGCCAACGCUCUCAACUAUGACACGCAAAACGCGUGCUCCGUUGAAUGGAGAUUAUCAUG [G34U G92C U101C U144A]
GGAUCUUCUCGAUCUAACAAAAAAGACAAAUCUGACACAAAGCUUGAGAGCAUGUUCGGAUGCAGAGGCGGAAGACUUCGGUGCCGCGAUAGCGCCAACGUUCUCAACUAUGAUACGCAAAACGCGUGCUCCUUUGAGUGGAGUUUAUCAUG [C35A C54G C72A C75A G84C C114U G133U A138G]
GGAUCUUCUCGAUCUAACAAAAAAGACAAAUCUUCCACAAAGCUUGAGAGCAUCUUCAAAUGCAGAGGCGGCAGCCUUCGGUGGUGCGAUAGCGCCAACGGUCUCAACUAUGACACGCAAAACGCGUGCUCCGUUGAAUGGAGUUUAUCGUG [G34U G58A G59A C85U U101G A150G]
GGAUCUUCUCGAUCUAACAAAAAAGACAAAUCUGACACAGAGCUUGAGAGUAUCUUCGGAUGCAGAGGCGGCAGCCUUCGGUGGCGCAAAAGAGCCAACGUUCUCAACUAUGACAGCCACAACGCGUGCUCCCUUGAAUGGAGUCUAUCAUG [C35A A40G C51U G88A U90A C93A C116G G117C A120C G133C U145C]
GGAUCUUCUCGAUCUAACAAAAAAGACAAAUCUGACACCAAGCUUGAGAGCAACUUCAGAUGCAGAGACGGCAGCCUUCGGUGGCGCGACAGCGACAACGUUCUCAACUAUGACACGCAAAACGCGUGCUCCAUUGAAUGGAGUUUAUCAUG [C35A A39C U53A G58A G68A U90C C95A G133A]
GGAUCUUCUCGAUCUAACAAAAAAGACAAAUCUGACACAAAGCUUGAGAGCAUCUUCGGAUGCAGAGGCGGCAGCCUUCGGUGGUGCGAUAGCGCCAAUGUUCUCAACUAUGACACGCAAAACGCGUGCUCCGUUGAAUGGAGUUUAUCAUG [C35A C85U C99U]
